Data published in a collection of fitness landscapes (doi:10.1016/j.celrep.2020.107928).
Over roughly 81,000 sequences, “one-hybrid fitness for binding parS DNA” has its median near -0.17; the highest 2% begin near 0.51. The list shows a part of the results.

B1: Caulobacter ParB omega fusion; a variant is named by its letters at X, in order, B8GW30 (parent)
chain: MESVVVGEPGMSEGRRGLGRGLSALLGEVDAAPAQAPGEQLGGSREAPIEILQRNPDQPRRTFREEDLEDLSNSIREKGVLQPILVRPSPDTAGEYQIVAGERAWRAAQRAGLKTVPIMVRELDDLAVLEIGIIENVQRADLNVLEEALSYKVLMEKFERTQENIAQTIGKSXSHVANXMRLLXLPDEVQSYLVSGELTAXHARAIAAAADPVALAKQIIEGGLSVRETEALARKAPNLSAGKSKGGRPPRVKDTDTQALESDLSSVLGLDVSIDHRGSTGTLTITYATLEQLDDLCNRLTRGI

Variants of: B1
Assay: one-hybrid fitness for binding parS DNA (scaled: cognate 1, non-cognate 0); higher = stronger binding
Details: with parS DNA site
Method in brief: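 Fitness here means the log change in variant-to-wild-type read ratio between plasmids sequenced before and after selection. That scale was set so cognate equals 1 and non-cognate equals 0. The selection was a bacterial one-hybrid screen of Caulobacter ParB libraries, four specificity codons randomised, in E. coli USO carrying a HIS3 reporter with the site 19 bp from the promoter, grown 48 hours at 37°C on M9-minus-histidine with 0.1 mM IPTG and 5 mM 3-AT.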

one-hybrid fitness for binding parS DNA, 0.591:
RTSA

one-hybrid fitness for binding parS DNA, 0.218:
VQMF

one-hybrid fitness for binding parS DNA, 0.22:
AIRH

one-hybrid fitness for binding parS DNA, 0.846:
RLRC

one-hybrid fitness for binding parS DNA, 0.539:
RIWA

one-hybrid fitness for binding parS DNA, 0.411:
RFNN

one-hybrid fitness for binding parS DNA, 0.701:
RRDC

one-hybrid fitness for binding parS DNA, 0.476:
WYGC

one-hybrid fitness for binding parS DNA, 0.24:
RCPN

one-hybrid fitness for binding parS DNA, ≤ 0.2:
IPGG
RNEW
PVMI
LFDQ
HMMS
ALIS
STEK
LGDK
NAWC
RIHQ
TPNW
QVVP
NDCG
DESR
QSQC
REMV
KSSQ
VAPR
LQVK
YKRM
GSGT
HAGA
DWTS
CPPP
GSIC
IEPD
RFSV
WPHS
KPDS
PARK
QKGG
PVGK
VKTQ
QHRI
DRET
QALM
HETR
PFTL
LRSN
IHTA
FEMV
NPRA
RTML
GTNT
NKIR
NHVY
VLGN
QERR
PMQT
KNCR
SIIS
AVFR
YNTC
KPIL
EAET
RNFV
HNDR
QKLG
HWKS
WKSD
LGSL
ETNW
IKRC
GQFS
EAFR
PPHI
KMLP
TFLV
NHSS
CYGC
RQVP
YHWW
IMII
GCQT
RGEE
KTNG
RDKR
HQHW
GNRT
SDNI
NADC
REQR
CMRA
SMAG
QYIG
VMEC
PLIS
EPDY
VPLN
EYGT
GTKL
PQLQ
VPHW
IQQI
LPLP
QKTL
SNWF
YLSG
WMDN
GRPS
PYQM
RRKF
IHSV
SCDN
KMCG
GGWD
AGMD
GGKA
NTDN
PHPC
VCTP
CKNR
PSYL
CACK
KIQT
RQWE
TVQR
AVMW
TYHT
KGWR
PWYT
KAPD
NDGT
TYGS
TITF
WYEF
EEFL
QFRL
SVKT
NEVT
SAII
QMYI
LSSP
GATF
IHKS
KTCE
PTHI
HWII
LMDS
YAIL
MMKM
GSKL
IYIR

one-hybrid fitness for binding parS DNA, 0.802:
RTDT
